Laboratory results from publication PMC4336329 (PLoS ONE, 2015).
In all, about 310,000 compounds went through this assay and about 14,000 (4.5%) showed an effect of 50% or more. The effect is printed as a negative number. The list shows a part of the results.

Biological target: human ether-à-go-go-related gene (hERG) potassium channel (human, UniProt Q12809)
Assay: primary screen, population patch clamp on CHO cells stably expressing hERG
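Also: peak tail current of the secondary pulse compared with the same well before compound.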

Sequence of human ether-à-go-go-related gene (hERG) potassium channel (Q12809 whole entry, looked up): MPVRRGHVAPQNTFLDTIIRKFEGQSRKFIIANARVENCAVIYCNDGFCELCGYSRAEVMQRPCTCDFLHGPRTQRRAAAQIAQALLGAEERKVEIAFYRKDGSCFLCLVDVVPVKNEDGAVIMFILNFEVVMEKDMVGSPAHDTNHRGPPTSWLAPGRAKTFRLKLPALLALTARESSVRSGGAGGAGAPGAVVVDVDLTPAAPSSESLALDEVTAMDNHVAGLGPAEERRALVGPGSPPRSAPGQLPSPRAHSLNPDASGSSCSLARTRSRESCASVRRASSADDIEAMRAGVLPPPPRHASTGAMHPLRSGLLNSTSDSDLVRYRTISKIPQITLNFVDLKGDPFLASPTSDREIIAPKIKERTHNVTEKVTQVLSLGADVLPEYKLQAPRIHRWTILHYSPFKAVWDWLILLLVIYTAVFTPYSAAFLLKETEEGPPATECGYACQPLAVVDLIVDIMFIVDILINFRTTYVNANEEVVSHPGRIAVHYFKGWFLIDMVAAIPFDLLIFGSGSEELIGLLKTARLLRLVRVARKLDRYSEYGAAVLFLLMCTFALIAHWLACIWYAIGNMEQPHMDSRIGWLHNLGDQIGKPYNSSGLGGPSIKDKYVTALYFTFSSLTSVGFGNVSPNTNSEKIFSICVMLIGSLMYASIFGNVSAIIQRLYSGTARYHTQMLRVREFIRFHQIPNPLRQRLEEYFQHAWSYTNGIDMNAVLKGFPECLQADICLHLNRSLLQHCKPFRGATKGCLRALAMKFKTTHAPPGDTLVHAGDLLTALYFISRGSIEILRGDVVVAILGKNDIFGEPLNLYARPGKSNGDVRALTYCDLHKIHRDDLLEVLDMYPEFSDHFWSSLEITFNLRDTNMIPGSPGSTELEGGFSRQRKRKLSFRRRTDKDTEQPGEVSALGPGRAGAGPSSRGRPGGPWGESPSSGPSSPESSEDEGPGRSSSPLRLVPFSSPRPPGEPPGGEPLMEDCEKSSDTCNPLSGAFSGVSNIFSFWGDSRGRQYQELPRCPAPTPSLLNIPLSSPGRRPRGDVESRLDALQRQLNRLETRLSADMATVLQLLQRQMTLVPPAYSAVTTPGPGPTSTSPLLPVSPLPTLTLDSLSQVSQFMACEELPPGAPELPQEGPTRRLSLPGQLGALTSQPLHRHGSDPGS

| Structure (SMILES) | hERG current change (%, negative = inhibition) at 10uM [%] |
| --- | --- |
| O=C1C=C(c2ccc(F)nc2)CCC1 | 1.44 |
| COc1ccc2sc(-c3ccccc3OC)c(C#CCCO)c2c1 | 12.6 |
| CCCNC(=O)C(Cc1ccc(C(F)(F)F)cc1)NC(=O)c1ccc(C#N)cc1 (stereo not shown) | -31.7 |
| NC(=O)[C@@H]1CCCN1C(=O)c1ccc2nc(Cc3ccccc3F)oc2c1 | 16.7 |
| C=CCNc1nnc(SCC(=O)Nc2ccccc2OC)c2ccccc12 | -0.862 |
| O=C(CSc1ccc2nnc(-c3cccc(F)c3)n2n1)NCC1CCCO1 (stereo not shown) | -22 |
| Cc1ccc(S(C)(=O)=NC(=O)NC(=O)c2c(F)cccc2Cl)cc1 (stereo not shown) | 7.36 |
| Cc1csc(SC(C)C(=O)Nc2ccc(Cl)cn2)n1 (stereo not shown) | -12.9 |
| CC(C)=CCc1c2c(c(O)c3c(=O)c4c(oc13)-c1cc(O)c(O)cc1OC4C=C(C)C)C=CC(C)(C)O2 (stereo not shown) | 15.7 |
| CCOc1ccc(C2N(c3ccc(OC)cc3)C(=O)C3CCCN32)cc1OC (stereo not shown) | -3.49 |
| CC(C)(C)OC(=O)N1CCC(NC(=O)c2nc[nH]c2C(=O)NC2CCN(C(=O)OC(C)(C)C)CC2)CC1 | -31.5 |
| O=C(CN1N=C(c2ccccc2)CCC1=O)NCCN1CCc2ccccc2C1 | -15.7 |
| O=C(c1cccs1)N1CCN=C1SCc1ccc(F)cc1 | 6.51 |
| CCOc1ccc(-c2cc(C(=O)OC)nc3c2c(=O)n(C)c(=O)n3C)cc1 | 3.99 |
| CCCCN(CC)C(=O)CN1C(=O)c2ccccc2C1=O | 3.83 |
| CCc1cccc(C)c1NC(=S)NCCc1c(C)[nH]c2ccc(C)cc12 | 3.67 |
| O=C(Nc1ccc(S(=O)(=O)Nc2ncccn2)cc1)c1ccc(F)c(S(=O)(=O)N2CCOCC2)c1 | 8.75 |
| Cc1cccn2c(=O)c3cc(C(=O)NCCc4ccccc4)c(=N)n(CCCn4ccnc4)c3nc12 | -74.4 |
| CC(C)(C)C(=O)Nc1ccc(C(=O)N/N=C/c2ccccc2OC(=O)c2ccc(Cl)cc2)cc1 | 0.668 |
| O=[N+]([O-])c1cccc(N=NN(CCO)c2cccc([N+](=O)[O-])c2)c1 | -0.0267 |
| CCC1CCCCN1C(=O)C(=O)c1cn(CC(=O)N(CC)CC)c2ccccc12 (stereo not shown) | 21 |
| Cc1ccc(OCC(=O)NC(C)c2ccccc2)cc1C (stereo not shown) | -5.25 |

| Structure (SMILES) | hERG current change (%, negative = inhibition) at 10uM [%] |
| --- | --- |
| CN(C)CCCNc1ncnc2oc(-c3ccccc3)c(-c3ccccc3)c12 | -69.5 |
| Cc1nn2c(c1-c1ccc(Cl)cc1)N=C(c1ccco1)CC2c1ccccc1 (stereo not shown) | 7.49 |
| [Cl-].c1ccc(CC[C@@H]2CC[C@@H](CCc3ccccc3)N2)cc1 | -66 |
| CS(=O)(=O)N1CCN(c2ccc(NC(=O)Cc3ccccc3)cc2)CC1 | 0.64 |
| CN1CCN(C2CC(=O)N(CCc3ccccc3)C2=O)CC1 (stereo not shown) | -4.9 |
| C=CCOc1ccccc1CN1CCCCCC1 | -18.9 |
| COc1cc2c(cc1OC)C(COc1ccc(C(C)C)cc1)NCC2 (stereo not shown) | -46.2 |
| COc1ccc(C(=O)/C=C/c2ccc(OC)c(CN3CCOCC3)c2)cc1 | -56.3 |
| COc1ccccc1-c1cn[nH]c1-c1ccc(OCc2ccccc2)cc1O | 7.49 |
| COc1ccc(N2CC(C(=O)Nc3nc(-c4ccccc4)c(C(C)=O)s3)CC2=O)c(OC)c1 (stereo not shown) | -0.242 |
| Cc1nnc(NC(=O)CCC(=O)NCc2cccs2)s1 | 4.66 |
| CN(CCC#N)C(=O)COC(=O)c1ccccc1C(=O)c1ccc(Cl)c([N+](=O)[O-])c1 | -0.749 |
| O=C(NCC(=O)N(Cc1ccco1)C(C(=O)NC1CCCC1)c1cccnc1)c1cccs1 (stereo not shown) | 3.5 |
| CC(C)(C)OC(=O)NCCCCCc1nnc(SCC(N)=O)o1 | 2.91 |
| O/N=C/c1cc(Cl)ccc1OCc1ccccc1Cl | 14.9 |
| Cc1c(C(=O)NC2CCCCC2)oc2ccccc12 | -4.22 |
| CCCc1nnc(NC(=O)CCC(=O)N2CCN(C3c4ccccc4-c4ccccc43)CC2)s1 | -3.76 |
| COc1ccc(CNC(=O)CC2C(=O)NCCN2CC(C)(C)C)c(OC)c1 (stereo not shown) | 7.82 |
| CCc1ccc(-c2ccc(C(=O)O)cc2)nc1 | 21 |
| CN1CCN(CCCNC(=O)CCC(=O)N2CCOc3ccccc32)CC1 | 5.46 |
| Cc1cc(C)nc(SCc2ccc(C(=O)N/N=C/c3ccc(C(=O)O)cc3)cc2)n1 | 28.6 |
| Cc1cc(NC(=O)COC(=O)c2ccc(NS(=O)(=O)c3ccc(C)c(C)c3)cc2)no1 | 5.86 |

| Structure (SMILES) | hERG current change (%, negative = inhibition) at 10uM [%] |
| --- | --- |
| CCCCN(CC)CCCNC(=O)c1cn(C)c(=O)c2c1c1ccccc1n2C | -29.2 |
| CC(=O)Nc1ccc(Oc2cc(C#N)c(C#N)cc2N2CCOCC2)cc1 | -16.9 |
| CC(=O)c1cc(-c2ccccc2)n(CC(=O)N2CCC(C)CC2)c1C | -7.42 |
| CC(C)CCn1c(=O)c2ccccc2n2c(CN3C(=O)NC4(CCC(C)CC4)C3=O)nnc12 (stereo not shown) | -72.1 |
| COC(=O)/C=C1\N/C(=N\c2nc(C)cc(C)n2)N(c2ccc(Cl)cc2)C1=O | 4.58 |
| CCN(CC)S(=O)(=O)c1cccc(NC(=O)CCSc2ccc(Cl)cc2)c1 | 10.3 |
| COc1ccc(OC)c(NC(=O)CCN2CC(C)OC(C)C2)c1 (stereo not shown) | 2.92 |
| O=C(Nc1cccc(C(F)(F)F)c1)OC1CN2CCC1CC2 (stereo not shown) | -28.5 |
| COc1ccc(CCNC(=O)C2CCN(S(=O)(=O)N3CCC(C)CC3)CC2)cc1OC | -4.77 |
| O=C(Cc1cccc2ccccc12)Nc1nnc(-c2cccc([N+](=O)[O-])c2)s1 | 17.6 |
| COc1cc(/C=C2\NC(=S)NC2=O)ccc1OCc1cccc(C(=O)O)c1 | 11.1 |
| COc1cc(OC)c(OC)cc1CN1CCCC(C(=O)N2CCCC2)C1.O=C(O)C(=O)O (stereo not shown) | 17.4 |
| CCn1c(CNC(=O)c2ccco2)nnc1SCCOc1ccccc1 | -7.69 |
| O=C(NC1CCCC1)c1ccc(Br)o1 | -4.8 |
| CN(C)S(=O)(=O)c1cccc(-c2cn3cccnc3n2)c1 | 21.5 |
| COc1ccc(/C=C(\C#N)C(=O)N2COCC2(C)C)cc1 | 9.99 |
| CCOc1ccc(NS(=O)(=O)c2ccc(NC(=S)NC(C)=O)cc2)cc1 | 15.5 |
| COc1ccc(N(C(C)C(=O)N(C)Cc2ccccc2)S(C)(=O)=O)cc1 (stereo not shown) | 12.9 |
| Cc1c(C(c2cc3c(cc2Br)OCO3)c2c(C)n(C)n(-c3ccccc3)c2=O)c(=O)n(-c2ccccc2)n1C | -6.73 |
| COc1ccc(C(=O)Cn2c3ccccc3n3nc(CCC(=O)O)c(=O)nc23)cc1OC | 3.71 |
| COc1ccc(CNCc2ccc3ccccc3c2)c(OC)c1.O=C(O)C(=O)O | -68.3 |
| COc1ccc(C2CC(c3ccccc3)=NN2C(=O)COC(=O)c2cnc(Cl)c(Cl)c2)cc1 (stereo not shown) | -1.68 |

| Structure (SMILES) | hERG current change (%, negative = inhibition) at 10uM [%] |
| --- | --- |
| COc1ccc(NC(=O)c2cc3ccccc3[nH]2)cc1 | 15.4 |
| CCC1CCCCN1C(=O)c1cc(COc2ccc3ncccc3c2)on1 (stereo not shown) | 0.129 |
| COC(=O)C1=C(c2ccc(OC)c(OC)c2)C[C@@H]2CC[C@H]1N2C(=O)NC1CC1 | 14.9 |
| CCOC(=O)c1cc(-c2cc(OC)c(OC)c(OC)c2)nc2c1c(=O)[nH]c(=O)n2Cc1ccccc1 | 1.34 |
| COc1ccc(CCNC(=O)CS(=O)(=O)Cc2nc(-c3ccc(C)cc3)oc2C)cc1OC | 2.05 |
| CC(O)c1ccc(Oc2cnccn2)cc1 (stereo not shown) | 22.3 |
| Cn1cnnc1SCC(=O)NN1C(=O)NC(C)(c2ccccc2)C1=O (stereo not shown) | -0.165 |
| C=C(c1ccc(OCCO)cc1)c1ccc(OCCO)cc1 | 21.2 |
| COc1cc(/C=C/C2=NC(=O)C(C)(C)O2)ccc1O | 10.7 |
| O=C(Cc1ccccn1)c1ccc(O)cc1O | 21.5 |
| Cc1cccc(NC(=O)c2cccc(NC3=NC4CS(=O)(=O)CC4S3)c2)c1 (stereo not shown) | 8.5 |
| COc1ccccc1CNC(=O)C(=O)Nc1nccs1 | 14.1 |
| COc1ccc(CNc2cc([N+](=O)[O-])ccc2OC)cc1 | -1.02 |
| COc1ccc(C(C)=O)c(Oc2ccc(S(=O)(=O)N3CCOCC3)cn2)c1 | -7.05 |
| O=C(COC(=O)c1ccccc1Cl)NC(=O)NCc1ccccc1 | -0.542 |
| COC(=O)c1[nH]c2cc(OC)ccc2c1NC(=O)CCN1CCSCC1 | 7.01 |
| O=C(CNC(=O)C12CC3CC(CC(C3)C1)C2)OCc1ccc(F)cc1Cl | -6.69 |
| O=C(COc1cccc(C(F)(F)F)c1)Nc1ccc2[nH]ncc2c1 | 1.33 |
| COc1ccc(C2/C=C\CN(C(=O)NC(C)C)CC(=O)N2Cc2ccc(F)cc2)cc1 (stereo not shown) | -2.92 |
